{"source": "PubChem BioAssay AID686979", "about": "(National Center for Advancing Translational Sciences (NCATS), 2013)", "note": "About 50,000 (12%) of roughly 420,000 compounds were called active. This list was built around the results that the source calls inconclusive (neither active nor inactive); the mix of calls is not that of the screen. Calls follow the shape of the dose curve; as a rule, active = well fitted inhibition curve with a large enough effect; inconclusive = small, poorly fitted or top-dose-only effect; inactive = flat fitted curve, though single readings scatter. Potencies of inconclusive entries are left out as doubtful fits. % is scaled to controls: 0 for no effect and ±100 for the full control effect; potency is read from the fitted curve at half-maximal effect; tags tell the direction and shape of the fitted curve.", "data": [{"test": "qHTS for Inhibitors of human tyrosyl-DNA phosphodiesterase 1 (TDP1): qHTS in cells in presence of CPT; also: nearly all actives have a fitted effect of over 55% in size", "settings": "chicken DT40 Tdp1-/-;hTDP1 cells + 20 nM CPT, ATP luminescence, 48 h; activity change, negative = growth inhibition: at 46.2 µM (top of the series) unless noted", "outline": "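Chicken DT40 Tdp1-/- cells complemented with human TDP1, 400 cells/well, exposed to compounds plus 20 nM camptothecin for at least 48 h at 37 C; viability read as ATP content by CellTiter-Glo luminescence.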", "values": [{"molecule": "CC(C)(C)c1ccc(NC(=O)CC2(C(F)(F)F)OCCO2)cc1", "Potency": "inconclusive [inhibitor, single point]"}, {"molecule": "CCOC(=O)c1c(C)[nH]c(C)c1S(=O)(=O)NCCc1ccc(SC)cc1", "Potency": "inconclusive [inhibitor, single point]"}, {"molecule": "Cc1cc(NC(=O)CSc2nnc(-c3ccccc3)o2)no1", "Potency": "inconclusive [inhibitor, single point]"}, {"molecule": "O=c1[nH]c(=S)[nH]c2c1[C@H](CCc1cccc(Cl)c1)O[C@H](C1CCCC1)C2", "activity change, negative = growth inhibition": "inactive: -12.7%"}, {"molecule": "Cc1cc2n(n1)CCC(=O)N2Cc1ccc(C(=O)Nc2cc(Cl)ccc2C)cc1", "Potency": "inconclusive [inhibitor, single point]"}, {"molecule": "Cc1ccc2cc3c(N)c4c(C)ccc(C)c4nc3nc2c1", "Potency": "inconclusive [inhibitor, single point]"}, {"molecule": "COc1ccc(/C=C2\\SC(=S)N(CCC(=O)NCCc3ccc(O)cc3)C2=O)cc1", "Potency": "inconclusive [inhibitor, single point]"}, {"molecule": "NC1=NN=C(N2N=C(c3ccccc3)CC2(O)C(F)(F)F)n2ncnc2C1", "note": "(stereo unspecified)", "Potency": "inconclusive [inhibitor, partial curve]"}, {"molecule": "O=C(c1ccc(F)cc1)C1CCN(C(=O)NCc2ccccc2)CC1", "Potency": "active: 16.4 µM"}, {"molecule": "CCOc1cc(N2CCOCC2)c(OCC)cc1NC(=O)c1cc(C)cc(C)c1", "Potency": "active: 13 µM"}, {"molecule": "COc1ccc(NC(=O)c2ccco2)cc1NC(=O)c1cc(Cl)ccc1OC", "activity change, negative = growth inhibition": "inactive: -10.5%"}, {"molecule": "Cc1ccc2oc(C(=O)N(C)CCC(O)c3ccccc3)c(C)c2c1", "note": "(stereo unspecified)", "Potency": "inconclusive [inhibitor, single point]"}, {"molecule": "CC(C)(C)C(=O)Nc1nnc([C@H]2C[C@H](O)[C@@H](CO)O2)s1", "activity change, negative = growth inhibition": "inactive: 1.22%"}, {"molecule": "O=S1(=O)c2ccccc2N(Cc2cccc(F)c2)c2ccccc21", "Potency": "inconclusive [inhibitor, single point]"}, {"molecule": "COc1ccc(C(=O)OCC(=O)N2CCc3ccccc3C2)cc1OC", "activity change, negative = growth inhibition": "inconclusive: -33.7% [inhibitor]"}, {"molecule": "O=C(c1cnc(N2CCN(c3ncccn3)CC2)c2ccccc12)N1CCN(c2ncccn2)CC1", "Potency": "active: 14.6 µM"}, {"molecule": "COc1ccc(N2CCN(C(=O)CNC(=O)Cc3ccccc3)CC2)cc1", "activity change, negative = growth inhibition": "inactive: -2.87%"}, {"molecule": "COCCN(CCOC)C(=O)COC(=O)c1cc([N+](=O)[O-])ccc1Cl", "activity change, negative = growth inhibition": "inactive: 3.7%"}, {"molecule": "O=C(COc1ccc(-c2nnco2)cc1)N1CCN(S(=O)(=O)c2ccccc2)CC1", "Potency": "inconclusive [inhibitor, partial curve]"}, {"molecule": "COc1ccc2c(c1)OC(O)(C(F)(F)C(F)F)CC2=O", "note": "(stereo unspecified)", "Potency": "active: 11.6 µM"}, {"molecule": "COc1cccc(-c2cc(C(F)(F)F)nc(NCCc3ccc(OC)c(OC)c3)n2)c1", "Potency": "inconclusive [inhibitor, single point]"}, {"molecule": "CN(C(=O)c1ccccc1C(=O)OCC(=O)NC(=O)NC(C)(C)C)C1CCCCC1", "Potency": "inconclusive [inhibitor, single point]"}, {"molecule": "C[C@@H](CN1CCC[C@H]1CN1C(N)=NC[C@@H]1Cc1ccccc1)N1C[C@@H](Cc2ccccc2)N(CCCC2CCCC2)C1=N", "Potency": "inconclusive [inhibitor, single point]"}, {"molecule": "O=C(c1cc(COc2c(F)cccc2F)on1)N1CCN(C2CCCCC2)CC1", "Potency": "inconclusive [inhibitor, single point]"}, {"molecule": "CCCCN=C(N)N=C(N)N", "Potency": "inconclusive [inhibitor, single point]"}, {"molecule": "CC(C)(C)c1ccc(O)c(N=Cc2cc3c(cc2[N+](=O)[O-])OCO3)c1", "Potency": "inconclusive [inhibitor, single point]"}, {"molecule": "COc1ccc(C(=O)NC(=S)Nc2cc(C)ccn2)cc1[N+](=O)[O-]", "Potency": "active: 16.4 µM"}, {"molecule": "CCCCOc1ccc(C(C)NC(=O)CN2C(=O)CSc3ccc(S(=O)(=O)N4CCOCC4)cc32)cc1", "note": "(stereo unspecified)", "Potency": "inconclusive [inhibitor, single point]"}, {"molecule": "CN(C(=O)c1ccc(F)c(S(=O)(=O)N2CCOCC2)c1)C1CCCCC1", "activity change, negative = growth inhibition": "inactive: 3.15%"}, {"molecule": "Cc1c(C(=O)OC(C)C)sc(NC(=O)c2cnccn2)c1C(=O)OC(C)C", "activity change, negative = growth inhibition": "inactive: -12.9%"}, {"molecule": "Cc1noc(C)c1COc1cccc(C(=O)OCC(=O)NC(=O)c2ccc(OC(F)F)cc2)c1", "activity change, negative = growth inhibition": "inactive: -29.4%"}, {"molecule": "CSc1ccc(-c2nnn(CC(=O)Nc3sc4c(c3C#N)CCC(C(C)(C)C)C4)n2)cc1", "note": "(stereo unspecified)", "activity change, negative = growth inhibition": "inactive: 4.28%"}, {"molecule": "CS(=O)(=O)N1CCC2(CCCN(c3ccccn3)C2)CC1", "activity change, negative = growth inhibition": "inactive: -25.1%"}, {"molecule": "Cc1c(C2(O)CCCCC2)[nH]c2cc(C(F)(F)F)ccc12", "Potency": "active: 20.6 µM"}, {"molecule": "CN(C)S(=O)(=O)c1cccc(C(=O)NCC(=O)NC2CCN(Cc3ccccc3)CC2)c1", "activity change, negative = growth inhibition": "inactive: -16.8%"}, {"molecule": "COc1ccc2cc(C3C(C#N)=C(N)OC(C)=C3C(C)=O)c(Cl)nc2c1", "note": "(stereo unspecified)", "Potency": "inconclusive [inhibitor, single point]"}, {"molecule": "CCOC(=O)N1CCN(C(=O)Nc2cccc(Cl)c2)CC1", "activity change, negative = growth inhibition": "inactive: -20.7%"}, {"molecule": "CC(C)CC(=O)NCC(c1ccc2c(c1)OCO2)N1CCN(c2ccccc2)CC1", "note": "(stereo unspecified)", "Potency": "inconclusive [inhibitor, single point]"}, {"molecule": "Cc1ccc(C(=O)Nn2cnnc2)cc1[N+](=O)[O-]", "activity change, negative = growth inhibition": "inactive: -1.39%"}, {"molecule": "CN1CCN(CC(=O)Nc2c(C(=O)c3ccccc3)oc3ccccc23)CC1", "Potency": "inconclusive [inhibitor, single point]"}, {"molecule": "CCOC(=O)c1oc2ccccc2c1NC(=O)c1ccccc1OC", "Potency": "inconclusive [inhibitor, single point]"}, {"molecule": "COc1ccc(C(=O)C2CCCN(Cc3cn[nH]c3-c3ccc(F)cc3)C2)cc1OC", "note": "(stereo unspecified)", "Potency": "inconclusive [inhibitor, partial curve, poor fit]"}, {"molecule": "COc1ccc(-c2[nH]nc3nc(-c4cc(Br)ccc4OC)cc(C(=O)O)c23)cc1", "activity change, negative = growth inhibition": "inactive: 0.99%"}, {"molecule": "O=C(Nc1ccccc1Cl)C(=O)c1cn(CC(=O)N2CCOCC2)c2ccccc12", "activity change, negative = growth inhibition": "inactive: -29.5%"}, {"molecule": "Cc1ccc(-n2c(-c3ccc(Br)cc3)c[n+]3c2CCc2ccc4cccnc4c2-3)cc1", "Potency": "active: 0.291 µM"}, {"molecule": "Cc1c(C(=O)OC2CCCCC2)[nH]c2c1C(=O)CC(c1ccc(F)cc1)C2", "note": "(stereo unspecified)", "Potency": "inconclusive [inhibitor, partial curve]"}]}]}
